{
  "source": "paper PMC3527473",
  "about": "“The C-Terminus of ClpC1 of Mycobacterium tuberculosis Is Crucial for Its Oligomerization and Function” (PLoS ONE, 2012)",
  "biological_target": "the molecule itself",
  "test": "SEC; Superdex-200 (1×30 cm) in buffer A (50 mM Tris-HCl pH 7.6, 100 mM KCl, 5 mM DTT, 10% glycerol, 0.01% Triton X-100) with 15 mM ATP and 10 mM MgCl2; protein pre-incubated with 15 mM ATP and 10 mM MgCl2 for 30 min at 25°C; monomer to hexamer; fractions checked by SDS-PAGE",
  "data": [
    {"protein": "Mycobacterium tuberculosis ClpC1, wild type (natural protein, also called ClpC1-WT) not shown", "values": [
      {"measurement": "stoichiometry N", "result": 6}
    ]}
  ]
}
